Results as given in PubChem BioAssay (NCI).
Values joined by “and” are separate entries in the source; they are usually repeats but may differ in a detail not shown here. Identical values can stand only once.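 Step 1: Grow cells in 96-well plates. Step 2: Expose to compound for 48 hours at 5 concentrations. Step 3: Interpolate endpoints linearly; if unreached, use highest concentration. GI50 marks 50% less growth. TGI is the concentration that stops growth completely.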

System: NCI-H322M lung
Experiment: inhibition of tumour cell growth, NCI panel, 48 h

O=S(=O)(Nc1ccc(I)c(Cl)c1)c1ccc(-c2cnc(C3CC3)o2)cc1
GI50: 5600 nM | TGI: 19200 nM

CN1C(=O)[C@]23SSC1(C)C(=O)N2[C@H]1Nc2ccccc2C1([C@@]12c4ccccc4N[C@@H]1N1C(=O)C4(C)SS[C@]1(C(=O)N4C)[C@H]2O)[C@@H]3O (some centres undefined)
GI50: 323 nM and 1340 nM | TGI: 878 nM and 3400 nM
